Reference: PubChem BioAssay AID624417 (National Center for Advancing Translational Sciences (NCATS), 2012)
The campaign covered roughly 410,000 compounds. About 6,400 (1.6%) were called active. The shares of active, inactive and inconclusive entries below differ from those in the screen. Calls follow the shape of the dose curve; as a rule, active = well fitted inhibition curve with a large enough effect; inconclusive = small, poorly fitted or top-dose-only effect; inactive = no such curve, though single readings can be large or run the other way. No potency is given beside an inconclusive call; the fits are too rough.

What follows are molecules tested against Glucagon-like peptide 1 receptor (Homo sapiens) (UniProt P43220) (assay: qHTS of GLP-1 Receptor Inverse Agonists (Inhibition Mode)). Conditions: HEK293 GLP-1R CRE-luciferase, luminescence, 24 h, GLP-1R form is constitutively active; series mostly up to 38.3 µM.
How it was run: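 GLP-1R inverse agonism mode: basal reporter luminescence in engineered HEK293 cells measured after one day of compound exposure at 37 deg C, with a 12 min room-temperature detection step.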
Also: nearly all actives have a fitted effect of over 55% in size.
Potency is read from the fitted curve at half-maximal effect; tags tell the direction and shape of the fitted curve.

Chain of UniProt P43220 (P43220 whole entry, looked up): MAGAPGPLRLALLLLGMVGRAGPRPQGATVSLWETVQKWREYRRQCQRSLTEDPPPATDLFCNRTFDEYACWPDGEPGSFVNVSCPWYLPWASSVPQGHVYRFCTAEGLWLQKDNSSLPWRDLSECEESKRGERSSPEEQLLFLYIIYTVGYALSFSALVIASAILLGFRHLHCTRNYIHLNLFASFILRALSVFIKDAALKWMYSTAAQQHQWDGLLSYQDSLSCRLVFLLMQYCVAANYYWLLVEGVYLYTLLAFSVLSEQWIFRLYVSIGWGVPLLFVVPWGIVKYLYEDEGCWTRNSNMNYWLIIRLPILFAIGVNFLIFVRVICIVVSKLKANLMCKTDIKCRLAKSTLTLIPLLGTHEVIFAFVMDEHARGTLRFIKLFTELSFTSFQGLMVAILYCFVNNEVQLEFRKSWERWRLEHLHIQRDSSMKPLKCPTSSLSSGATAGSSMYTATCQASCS

Compound | Potency
C/C(=N\OCC(=O)Nc1ccc(OC(F)(F)F)cc1)c1ccc2c(c1)OCCO2 | inconclusive [inhibitor, single point]
Cc1ccccc1NC(=S)N1CCN(Cc2ccccc2)CC1 | inconclusive [inhibitor, partial curve, poor fit]
Cc1ccc(-n2nnnc2SCC(=O)Nc2ccc3c(c2)OCCO3)cc1C | inconclusive [inhibitor, single point]
Cc1c(CCC(=O)N2CCC(C(=O)O)CC2)c(=O)oc2cc3oc4c(c3cc12)CCCC4 | inactive
COc1ccc(CNC(=O)CCCc2cn(C)c3ccccc23)c(OC)c1 | inconclusive [inhibitor, single point]
O=C(CC(c1ccccc1)c1cc(Br)ccc1O)NCC1(c2ccccc2)CCCC1 (configuration not stated) | inconclusive [inhibitor, partial curve, poor fit]
CC(=O)n1cc([C@H]2C=C(C(=O)Nc3ccccc3)O[C@@H](OCc3ccc(CO)cc3)C2)c2ccccc21 | inconclusive [inhibitor, single point]
CC(C)Cc1nc(N2CCN(C(=O)c3ccccc3)CC2)c(C#N)c2c1CCC2 | inconclusive [inhibitor, single point]
Cc1ccc(S(=O)(=O)N2CCC(c3nnc(SCCN4CCCC4)n3C)CC2)cc1 | inconclusive [inhibitor, single point]
CC(C)(C)NC(=O)c1cccc(NC(=O)CSc2ccc(Cl)cc2)c1 | inconclusive [inhibitor, partial curve]
Cc1cccc(N2CCN(C(=O)c3cc4ccccc4oc3=O)CC2)c1C | inconclusive [inhibitor, full curve, poor fit]
COC(=O)c1ccccc1NC1CC(=O)N(c2c(C)cccc2C)C1=O (configuration not stated) | inactive
CC(=O)Nc1cc(C(=O)NCc2ccc(F)cc2Cl)ccc1Sc1ccc(Cl)cc1 | inconclusive [inhibitor, single point]
C/C(=N\NC(=S)NC1CCCCC1)c1cccc(C(F)(F)F)c1 | inconclusive [inhibitor, full curve, poor fit]
O=C(NCCNC1CCCCC1)c1ccco1 | inactive
Cc1c(CN(C)C)c2c(n1Cc1ccccc1)C(=O)c1ccccc1-2 | inconclusive [inhibitor, partial curve, poor fit]
CCOc1ccc(CN(C)C(=O)CN2C(=O)NC3(CCCc4ccccc43)C2=O)cc1 (configuration not stated) | inconclusive [inhibitor, partial curve, poor fit]
COC(=O)c1sccc1NC(=O)CSc1ccccc1NS(=O)(=O)c1cc(Cl)ccc1Cl | inconclusive [inhibitor, partial curve, poor fit]
CCOC(=O)Cc1csc(NC(=O)Cc2ccccc2[N+](=O)[O-])n1 | inconclusive [inhibitor, full curve]
COc1ccc2nc(N3C(=O)CC(C(C)c4ccccc4)C3=O)sc2c1 (configuration not stated) | inconclusive [inhibitor, single point]
COc1ccc(-c2noc(N3CCC(C(=O)Nc4ccccc4OC)CC3)n2)cc1 | inconclusive [inhibitor, partial curve, poor fit]

Compound | Potency
COc1cc(OC)cc(C(=O)Nc2c(C(=O)Nc3ccc(F)cc3)oc3ccccc23)c1 | inconclusive [inhibitor, full curve]
CN1c2ccccc2Oc2nnc(N3CCN(Cc4ccccc4)CC3)cc21 | inconclusive [inhibitor, single point]
Cc1ccc(NC(=O)C2(S(=O)(=O)c3ccc(Cl)cc3)CC2)c(Br)c1 | inconclusive [inhibitor, partial curve]
Cc1c(C(=O)N2CCN(Cc3ccccc3)CC2)oc2c1C(=O)CC(C)(C)C2 | inconclusive [inhibitor, single point]
CCOC(=O)c1cc(-c2ccccc2)n(CCCC(=O)Nc2cccc(Cl)c2C)c1C | inconclusive [inhibitor, partial curve]
CSc1ccc(CCNC(=O)C(C)n2c(C)c3cnn(-c4ccccc4)c(=O)c3c2C)cc1 (configuration not stated) | inconclusive [inhibitor, single point]
COC(=O)C1=C(C)N(C)C(C)=C(C(=O)OC)C1c1ccc(F)c(Br)c1 | inconclusive [inhibitor, partial curve, poor fit]
O=C(NCc1ccco1)c1cc(-c2ccccc2)nn1CC1CC(c2cccc([N+](=O)[O-])c2)=NO1 (configuration not stated) | inconclusive [inhibitor, partial curve, poor fit]
CC(C)OC(=O)c1cccc(C(=O)OCc2ccco2)n1 | inactive
Cc1cc(C)cc(NC(=O)Cn2nnc(C(=O)Nc3cc(C)cc(C)c3)c2N)c1 | inconclusive [inhibitor, partial curve]
CC1(C2CC2)NC(=O)N(CC(=O)N2CCN(c3cccc(C(F)(F)F)c3)CC2)C1=O (configuration not stated) | inconclusive [inhibitor, single point]
CCS(=O)(=O)N1CC(=O)N(c2cccc(C)c2C)C(C)(C(=O)NC2CCCCC2)C1 (configuration not stated) | inactive
CCOc1ccc(OCC)c(S(=O)(=O)NC2CC(C)(C)NC(C)(C)C2)c1 | inconclusive [inhibitor, partial curve]
O=[N+]([O-])c1ccc2ncnc(N3CCN(Cc4ccc5c(c4)OCO5)CC3)c2c1 | inconclusive [inhibitor, full curve, poor fit]
Cc1ccc(-c2c3c(=O)n(C)c(=O)n(C)c3c3c(C(F)(F)F)nc4ccccc4n23)cc1 | inactive
CCCN(Cc1nnc(-c2ccccc2Cl)o1)C(=O)c1oc2ccccc2c1C | inconclusive [inhibitor, partial curve, poor fit]
COCC1CCN(Cc2cn(-c3ccccc3F)nc2-c2cc(C)sc2C)CC1 | inconclusive [inhibitor, single point]
Cc1ccc(Nc2ncc3c(n2)CC(C)(C)CC3=O)cc1 | inconclusive [inhibitor, partial curve, poor fit]
COC(=O)c1cc2occc2n1Cc1ccc(Cl)cc1 | inconclusive [inhibitor, single point]
CCCCOc1ccc(C(=O)OCC(=O)N2CCCCCC2)cc1 | inconclusive [inhibitor, partial curve, poor fit]
COc1ccccc1N1CCN(C(=O)c2oc3ccc(F)cc3c2C)CC1 | inconclusive [inhibitor, partial curve]

Compound | Potency
Cc1csc(NC(=O)Cc2coc3cc(C)c(C(C)C)cc23)n1 | inconclusive [inhibitor, partial curve, poor fit]
Cc1ccc(F)cc1-c1nc(NCC2CC2)nc2ccsc12 | inconclusive [inhibitor, single point]
O=C1Nc2ccc(S(=O)(=O)N(CCO)CCO)c3cccc1c23 | inactive
COc1ccc(C(=O)N/N=C(\c2ccccc2)c2ccccn2)cc1 | inconclusive [inhibitor, full curve]
CCc1sc(C(=O)Nc2ccc3c(c2)OCO3)cc1C | inconclusive [inhibitor, single point]
O=C(Cn1cc(C(=O)C(=O)N2CCOCC2)c2ccccc21)Nc1cccc(C(F)(F)F)c1 | inconclusive [inhibitor, single point]
Cc1ccccc1CO/N=C/c1[nH]ncc1Br | inconclusive [inhibitor, single point]
CC(=O)Oc1c(Br)cc(N(C(C)=O)S(=O)(=O)c2ccccc2)c2ccccc12 | inconclusive [inhibitor, single point]
C[C@@H]1CN([C@H](C)CO)C(=O)Cc2cc(NC(=O)CCC(F)(F)F)ccc2O[C@@H]1CN(C)S(=O)(=O)c1ccccc1 | inactive
O=C(CSc1nnc(C2CCCCC2)n1Cc1ccccc1)NCc1ccco1 | inconclusive [inhibitor, full curve, poor fit]
Cc1ccc(CCNc2nc3c(S(=O)(=O)c4ccc(C)cc4)nnn3c3ccsc23)cc1 | inactive
Cc1nn(-c2ccccc2)c(N2CCCC2)c1/C=N/NC(=S)Nc1ccccc1F | inconclusive [inhibitor, partial curve, poor fit]
C/C(CC(=O)Nc1ccc(Cl)c(C(F)(F)F)c1)=N\NC(=O)c1ccccc1O | inconclusive [inhibitor, partial curve, poor fit]
O=C(c1ccco1)N1CCN(CCCCOc2cccc3ccccc23)CC1 | inconclusive [inhibitor, partial curve, poor fit]
O=C(Nc1cccs1)Nc1ccccc1Cl | inconclusive [inhibitor, single point]
CCN1CCN(CCC(=O)Nc2cc(OC)cc(OC)c2)CC1 | inactive
Cc1cc(/C=C\c2ccc3cc(N(C)C)ccc3[n+]2C)c(C)n1-c1ccccc1 | active: 2 µM
O=C(COc1ccc(Br)cc1Cl)N1CCN(c2ccccn2)CC1 | inconclusive [inhibitor, partial curve, poor fit]
Cc1ccccc1CN1c2ccccc2-c2nc(SCC(=O)NCCc3ccccc3)ncc2S1(=O)=O | inactive
CN(C(=O)COC(=O)c1cccc(S(=O)(=O)N2CCCCCC2)c1)c1ccccc1 | inconclusive [inhibitor, single point]
